Source: the supplement of paper PMC8728848
The other results are listed elsewhere or left out.

Columns and labels:
Assay in all cases: glycan array binding signal (z-score within array); higher = stronger binding
Settings in all cases: glycan notation: IUPAC condensed, linker removed
[1] = target: Gal(b1-4)GlcNAc(b1-3)Gal(b1-3)GlcNAc
Summary of the method: (§1)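 From the Consortium for Functional Glycomics database, 3228 arrays were curated, keeping only those whose protein sequence was available. Binding is given as a within-array Z-score averaged across arrays sharing a protein sequence and across linkers. Negative Z-scores can be read as non-binding.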

[2] = target: Gal(b1-4)GlcNAc(b1-3)Gal(b1-4)Glc
Summary of the method: as §1

[3] = target: Gal(b1-4)GlcNAc(b1-3)Gal(b1-4)GlcNAc
Summary of the method: as §1

[4] = target: Gal(b1-4)GlcNAc(b1-3)Gal(b1-4)GlcNAc(b1-3)Gal(b1-4)GlcNAc
Summary of the method: as §1

[5] = target: Gal(b1-4)GlcNAc(b1-3)Gal(b1-4)[Fuc(a1-3)GlcNAc(b1-6)]Gal(b1-4)Glc
Summary of the method: as §1

[6] = target: Gal(b1-4)GlcNAc(b1-3)Gal(b1-4)[Fuc(a1-3)]GlcNAc(b1-3)Gal(b1-4)[Fuc(a1-3)]GlcNAc
Summary of the method: as §1

[7] = target: Gal(b1-4)GlcNAc(b1-3)GalNAc
Summary of the method: as §1

[8] = target: Gal(b1-4)GlcNAc(b1-3)[Gal(b1-4)GlcNAc(b1-6)]Gal(b1-4)GlcNAc
Summary of the method: as §1

[9] = target: Gal(b1-4)GlcNAc(b1-3)[Gal(b1-4)GlcNAc(b1-6)]GalNAc
Summary of the method: as §1

[10] = target: Gal(b1-4)GlcNAc(b1-3)[GlcNAc(b1-6)]Gal(b1-4)GlcNAc
Summary of the method: as §1

[11] = target: Gal(b1-4)GlcNAc(b1-6)Gal(b1-4)GlcNAc
Summary of the method: as §1

[12] = target: Gal(b1-4)GlcNAc(b1-6)GalNAc
Summary of the method: as §1

[13] = target: Gal(b1-4)GlcNAc(b1-6)[Gal(b1-3)]GalNAc
Summary of the method: as §1

Gal(b1-4)GlcNAc6P = target: Gal(b1-4)GlcNAc6P
Summary of the method: as §1

Gal(b1-6)Gal = target: Gal(b1-6)Gal
Summary of the method: as §1

Gal3S(b1-3)GalNAc = target: Gal3S(b1-3)GalNAc
Summary of the method: as §1

Gal3S(b1-3)GlcNAc = target: Gal3S(b1-3)GlcNAc
Summary of the method: as §1

[14] = target: Gal3S(b1-3)[Fuc(a1-4)]GlcNAc
Summary of the method: as §1

Gal3S(b1-4)Glc = target: Gal3S(b1-4)Glc
Summary of the method: as §1

Gal3S(b1-4)Glc6S = target: Gal3S(b1-4)Glc6S
Summary of the method: as §1

Gal3S(b1-4)GlcNAc = target: Gal3S(b1-4)GlcNAc
Summary of the method: as §1

Gal3S(b1-4)GlcNAc6S = target: Gal3S(b1-4)GlcNAc6S
Summary of the method: as §1

[15] = target: Gal3S(b1-4)[Fuc(a1-3)]Glc
Summary of the method: as §1

[16] = target: Gal3S(b1-4)[Fuc(a1-3)]Glc6S
Summary of the method: as §1

Gal3S4S(b1-4)GlcNAc = target: Gal3S4S(b1-4)GlcNAc
Summary of the method: as §1

Gal3S6S(b1-4)GlcNAc = target: Gal3S6S(b1-4)GlcNAc
Summary of the method: as §1

Gal3S6S(b1-4)GlcNAc6S = target: Gal3S6S(b1-4)GlcNAc6S
Summary of the method: as §1

Gal4S(b1-4)GlcNAc = target: Gal4S(b1-4)GlcNAc
Summary of the method: as §1

Gal4S6S(b1-4)GlcNAc = target: Gal4S6S(b1-4)GlcNAc
Summary of the method: as §1

Gal6P(b1-4)GlcNAc = target: Gal6P(b1-4)GlcNAc
Summary of the method: as §1

Gal6S(b1-3)GlcNAc = target: Gal6S(b1-3)GlcNAc
Summary of the method: as §1

Gal6S(b1-3)GlcNAc6S = target: Gal6S(b1-3)GlcNAc6S
Summary of the method: as §1

Gal6S(b1-4)Glc = target: Gal6S(b1-4)Glc
Summary of the method: as §1

Gal6S(b1-4)Glc6S = target: Gal6S(b1-4)Glc6S
Summary of the method: as §1

Gal6S(b1-4)GlcNAc = target: Gal6S(b1-4)GlcNAc
Summary of the method: as §1

Gal6S(b1-4)GlcNAc6S = target: Gal6S(b1-4)GlcNAc6S
Summary of the method: as §1

GalNAc(a1-3)Gal = target: GalNAc(a1-3)Gal
Summary of the method: as §1

GalNAc(a1-3)GalNAc = target: GalNAc(a1-3)GalNAc
Summary of the method: as §1

B1: Gal 4 (Homo sapiens), Q8K419 (protein)
chain: MAYVPAPGYQPTYNPTLPYKRPIPGGLSVGMSVYIQGMAKENMRRFHVNFAVGQDDGADVAFHFNPRFDGWDKVVFNTMQSGQWGKEEKKKSMPFQKGKHFELVFMVMPEHYKVVVNGNSFYEYGHRLPVQMVTHLQVDGDLELQSINFLGGQPAAAPYPGAMTIPAYPAGSPGYNPPQMNTLPVMTGPPVFNPRVPYVGALQGGLTVRRTIIIKGYVLPTARNFVINFKVGSSGDIALHLNPRIGDSVVRNSFMNGSWGAEERKVAYNPFGPGQFFDLSIRCGMDRFKVFANGQHLFDFSHRFQAFQMVDTLEINGDITLSYVQI
glycan array binding signal (z-score) [1]: 0.133 | glycan array binding signal (z-score) [2]: 1.11 | glycan array binding signal (z-score) [3]: 0.008 | glycan array binding signal (z-score) [4]: -0.088 | glycan array binding signal (z-score) [5]: -0.185 | glycan array binding signal (z-score) [6]: -0.196 | glycan array binding signal (z-score) [7]: -0.176 | glycan array binding signal (z-score) [8]: -0.187 | glycan array binding signal (z-score) [9]: -0.176 | glycan array binding signal (z-score) [10]: -0.184 | glycan array binding signal (z-score) [11]: -0.175 | glycan array binding signal (z-score) [12]: -0.191 | glycan array binding signal (z-score) [13]: -0.059 | glycan array binding signal (z-score) (Gal(b1-4)GlcNAc6P): -0.2 | glycan array binding signal (z-score) (Gal(b1-6)Gal): -0.203 | glycan array binding signal (z-score) (Gal3S(b1-3)GalNAc): 1.15 | glycan array binding signal (z-score) (Gal3S(b1-3)GlcNAc): 0.315 | glycan array binding signal (z-score) [14]: -0.204 | glycan array binding signal (z-score) (Gal3S(b1-4)Glc): 0.086 | glycan array binding signal (z-score) (Gal3S(b1-4)Glc6S): 0.631 | glycan array binding signal (z-score) (Gal3S(b1-4)GlcNAc): -0.136 | glycan array binding signal (z-score) (Gal3S(b1-4)GlcNAc6S): 0.018 | glycan array binding signal (z-score) [15]: -0.203 | glycan array binding signal (z-score) [16]: -0.189 | glycan array binding signal (z-score) (Gal3S4S(b1-4)GlcNAc): -0.211 | glycan array binding signal (z-score) (Gal3S6S(b1-4)GlcNAc): -0.205 | glycan array binding signal (z-score) (Gal3S6S(b1-4)GlcNAc6S): -0.199 | glycan array binding signal (z-score) (Gal4S(b1-4)GlcNAc): -0.209 | glycan array binding signal (z-score) (Gal4S6S(b1-4)GlcNAc): -0.199 | glycan array binding signal (z-score) (Gal6P(b1-4)GlcNAc): -0.211 | glycan array binding signal (z-score) (Gal6S(b1-3)GlcNAc): -0.207 | glycan array binding signal (z-score) (Gal6S(b1-3)GlcNAc6S): -0.196 | glycan array binding signal (z-score) (Gal6S(b1-4)Glc): -0.206 | glycan array binding signal (z-score) (Gal6S(b1-4)Glc6S): -0.201 | glycan array binding signal (z-score) (Gal6S(b1-4)GlcNAc): -0.202 | glycan array binding signal (z-score) (Gal6S(b1-4)GlcNAc6S): -0.193 | glycan array binding signal (z-score) (GalNAc(a1-3)Gal): -0.199 | glycan array binding signal (z-score) (GalNAc(a1-3)GalNAc): -0.205
